In article PMC11584402 one finds binding data, which are given here for four molecules.

Protein sequences, listed by entry. Tags and fused reporters are not part of them.
UniProt Q07820: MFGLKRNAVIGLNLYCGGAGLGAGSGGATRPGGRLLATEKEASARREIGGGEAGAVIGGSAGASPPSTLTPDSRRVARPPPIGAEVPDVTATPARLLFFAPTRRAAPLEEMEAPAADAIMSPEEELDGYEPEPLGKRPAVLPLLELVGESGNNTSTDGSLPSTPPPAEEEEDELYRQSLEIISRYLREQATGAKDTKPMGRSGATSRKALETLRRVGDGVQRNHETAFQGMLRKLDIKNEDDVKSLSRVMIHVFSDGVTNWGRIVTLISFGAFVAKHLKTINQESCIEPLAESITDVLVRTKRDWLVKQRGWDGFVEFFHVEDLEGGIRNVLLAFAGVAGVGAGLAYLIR

No constants are given. Whether binding was seen depends on the method and setting. For some of these results: Binding seen in cells or lysates may run through a third protein. Some results given as binding are weak or reduced against the parent protein; the word gives no strength. Where a sequence is shown, tags or fusion partners need not be part of it.

The target in assay [1] is BCL2-mCherry (human), P10415. Kind of assay: probe binding assay (PBA; single-molecule pull-down with TIRF counting); mCherry-labelled anti-apoptotic protein immobilised from HEK293T crude extract on a PEG surface (biotinylated anti-RFP antibody); crude HEK293T extract with the eGFP-labelled probe diluted to a range of eGFP concentrations, 10 min; fractional occupancy of surface baits at equilibrium fitted with n fixed to 1 or with the generalized Hill …. As to conditions: remark: other sources report otherwise.

Assay [2] concerns the target BCL2-mCherry (human), P10415. The assay is described as follows: probe binding assay (PBA), single-molecule fluorescence counting; mCherry-labelled anti-apoptotic protein from HEK293T extract immobilised on the surface; eGFP-labelled probe in crude HEK293T extract added at a range of concentrations, 10 min; fractional occupancy fitted for Kd. The settings on record: remark: other sources report otherwise.

Assay [3] addresses MCL1-mCherry (human) (UniProt Q07820). The assay is described as follows: probe binding assay (PBA; single-molecule pull-down with TIRF counting); mCherry-labelled anti-apoptotic protein immobilised from HEK293T crude extract on a PEG surface (biotinylated anti-RFP antibody); crude HEK293T extract with the eGFP-labelled probe diluted to a range of eGFP concentrations, 10 min; fractional occupancy of surface baits at equilibrium fitted with n fixed to 1 or with the generalized Hill equation (n fitted).

The target is the same in assay [4]. The assay is described as follows: probe binding assay (PBA), single-molecule fluorescence counting; mCherry-labelled anti-apoptotic protein from HEK293T extract immobilised on the surface; eGFP-labelled probe in crude HEK293T extract added at a range of concentrations, 10 min; fractional occupancy fitted for Kd.
Assay [5] addresses B-cell-lymphoma-2 (BCL2), endogenous (human (endogenous in HL60)), P10415. Kind of assay: probe binding assay (PBA), single-molecule fluorescence counting; endogenous anti-apoptotic protein immobilised by its IP antibody from 1 mg ml^-1 crude extract of cancer cell lines or primary AML cells (GDN lysis, 1 h); eGFP-labelled probe in crude HEK293T extract added, 10 min. As to conditions: remark: other sources report otherwise.

Assay [6] concerns the target BCL2-like protein 4 (BAX), endogenous (human (endogenous in HL60)), Q07812. Kind of assay: co-IP; SMPC immunoassay of endogenous complexes: bait immobilised by a monoclonal IP antibody on a PEG surface from 2 mg ml^-1 crude cell extract (GDN lysis, 2 h), partner detected by a monoclonal antibody and a Cy3 secondary antibody; single-molecule counting; cells untreated or treated with staurosporine, ABT-199 or AZD-5991. As to conditions: remark: other sources report otherwise.

B1: NOXA-eGFP, Q13794 1-54 (natural protein)
chain: MPGKKARKNAQPSPARAPAELEVECATQLRRFGDKLNFRQKLLNLISKLFCSGT
In the case of B1, the binding result in assay [1] and in assay [2] was “no binding” in each case.

B2: BAD-eGFP (protein, UniProt Q92934 1-168)
chain: MFQIPEFEPSEQEDSSSAERGLGPSPAGDGPSGSGKHHRQAPGLLWDASHQQEQPTSSSHHGGAGAVEIRSRHSSYPAGTEDDEGMGEEPSPFRGRSRSAPPNLWAAQRYGRELRRMSDEFVDSFKKGLPRPKSAGTATQMRQSSSWTRVFQSWWDRNLGRGSSAPSQ
In the case of B2, the binding result with MCL1-mCherry (human) [3] and with MCL1-mCherry (human) [4] was “no binding” in each case.

B3: BAD-eGFP, Q92934 1-168 (natural protein)
chain: MFQIPEFEPSEQEDSSSAERGLGPSPAGDGPSGSGKHHRQAPGLLWDASHQQEQPTSSSHHGGAGAVEIRSRHSSYPAGTEDDEGMGEEPSPFRGRSRSAPPNLWAAQRYGRELRRMSDEFVDSFKKGLPRPKSAGTATQMRQSSSWTRVFQSWWDRNLGRGSSAPSQ
For B3, the binding entry in assay [5] and in assay [2] was “binds” in each case.

B4: BCL2 homologous antagonist/killer (BAK), endogenous, Q16611 1-211 (protein)
chain: MASGQGPGPPRQECGEPALPSASEEQVAQDTEEVFRSYVFYRHQQEQEAEGVAAPADPEMVTLPLQPSSTMGQVGRQLAIIGDDINRRYDSEFQTMLQHLQPTAENAYEYFTKIATSLFESGINWGRVVALLGFGYRLALHVYQHGLTGFLGQVTRFVVDFMLHHCIARWIAQRGGWVAALNLGNGPILNVLVVLGVVLLGQFVVRRFFKS
For the molecule B4, in assay [6], the binding result is reported as “binds”.
